In all, about 110,000 compounds went through this assay and about 230 (0.21%) showed an effect of 50% or more. Some of the results follow.
target: DPAP1 (Plasmodium falciparum, UniProt Q8IIJ9); experiment: primary screen, percent inhibition; read by cleavage of a fluorogenic dipeptide substrate; higher = more effect of the substance; parameters: species or system P. falciparum D10 trophozoite lysates; single well
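Also: 30 min substrate incubation versus DMSO and 10 µM JCP410 controls.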

Sequence of DPAP1 (Q8IIJ9 whole entry, looked up): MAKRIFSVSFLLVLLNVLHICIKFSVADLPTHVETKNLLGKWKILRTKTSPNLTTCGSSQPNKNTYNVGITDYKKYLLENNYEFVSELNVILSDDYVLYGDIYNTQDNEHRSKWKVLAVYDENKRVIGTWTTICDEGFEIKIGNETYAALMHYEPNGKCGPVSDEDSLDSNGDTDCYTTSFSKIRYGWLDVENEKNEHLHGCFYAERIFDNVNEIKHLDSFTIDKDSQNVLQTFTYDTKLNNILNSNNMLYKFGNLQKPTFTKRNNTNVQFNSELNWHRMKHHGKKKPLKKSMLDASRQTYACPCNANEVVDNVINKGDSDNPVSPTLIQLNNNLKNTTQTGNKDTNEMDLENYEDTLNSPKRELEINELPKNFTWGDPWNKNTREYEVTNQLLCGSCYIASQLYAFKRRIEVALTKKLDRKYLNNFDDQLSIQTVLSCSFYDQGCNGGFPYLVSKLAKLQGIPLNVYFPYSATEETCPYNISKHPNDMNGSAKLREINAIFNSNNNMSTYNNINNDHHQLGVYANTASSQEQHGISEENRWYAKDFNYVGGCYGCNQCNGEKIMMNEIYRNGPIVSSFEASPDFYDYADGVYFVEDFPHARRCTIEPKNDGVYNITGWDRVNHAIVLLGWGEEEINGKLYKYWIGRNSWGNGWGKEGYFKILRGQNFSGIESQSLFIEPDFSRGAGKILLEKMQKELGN

Row | Compound | % Inhibition @ 10 uM [%]
1 | CCN1CCCC1CNC(=O)Cn1nc(C)n2cccc2c1=O (centres unmarked) | -8.41
2 | O=C(O)C(=O)N[C@@H](CC1CCCCC1)C(=O)N[C@@H](CCc1ccccc1)C(=O)c1nc2ccccc2o1 | -5.21
3 | Cn1cccc1CNCCCSc1nnnn1C | 0.386
4 | CC(CNC(=O)c1cc(-c2ccco2)[nH]n1)c1ccccc1 (centres unmarked) | -0.177
5 | CN(C)CCCN1CC(c2ccccc2)CC1=O (centres unmarked) | -2.62
6 | CCOC(=O)C1CCN(S(=O)(=O)c2ccc(NC(C)=O)cc2)CC1 | 2.58
7 | COc1ccc(OC)c(CCNCc2c(C(=O)O)c(C)n(Cc3ccccc3)c2C)c1 | -5.49
8 | CNS(=O)(=O)c1cn(CC(=O)N2CCC(N3CCCCC3)CC2)cc1S(=O)(=O)NC | -0.341
9 | Cc1c2cnn(CC(=O)N3CCC(Cc4ccccc4)CC3)c(=O)c2c(C)n1Cc1ccccc1 | 1.22
10 | Cc1ccc(CNC(=O)CSCc2nc(-c3cccs3)oc2C)cc1 | -1.05
11 | O=S(=O)(Nc1nc(-c2ccccc2)cs1)c1ccc(Cl)cc1 | 1.21
12 | CSc1nc(Oc2cc(C)cc(C)c2)cc(-n2ncc(C#N)c2N)n1 | 5.9
13 | Clc1cccc(N2CCN(Cc3ccccc3Br)CC2)c1 | -5.41
14 | Cc1cnn(-c2nc(-c3ccc(F)cc3)cc(C(F)(F)F)n2)c1 | -3.12
15 | CC(C(=O)NCCc1ccc(Cl)cc1)n1sc2ccccc2c1=O (centres unmarked) | -9.85
16 | COc1ccc2c(Sc3ccc(C)cc3)c(C(=O)N3CCC4(CC3)OCCO4)[nH]c2c1 | 1.91
17 | CC1(C)CC(=O)C(/C=N/CCc2c[nH]c3ccccc23)=C(O)C1 | 1.96
18 | CC1CCN(C(=O)COc2ccc(-c3nn(C)c(=O)c4ccccc34)cc2)CC1 | 3.63
19 | CC(=O)N1CCn2c3ccc(C)cc3c3cccc1c32 | -5.98
20 | Cc1cccc(C(=O)c2cn[nH]c2-c2ccc(C)cc2O)c1 | 5.9
21 | CCOc1ccc(-n2nnc(C(=O)OC)c2C(=O)OC)cc1 | -3.39
22 | COc1ccc(N2CCN(Cc3ccc(NC(C)=O)cc3)CC2)cc1 | -1.07

Row | Compound | % Inhibition @ 10 uM [%]
23 | CC(NC(=O)c1cnccn1)c1ccccc1 (centres unmarked) | -15.4
24 | [O-][n+]1cccc2c1-c1ccccc1/C2=N/O | 3.06
25 | CC(C)C/C(=N\O)c1cn(C)c2ccccc12 | -6.25
26 | O=C1c2ccccc2C(=O)N1CCSc1nc2ccccc2o1 | 1.03
27 | CCOC(=O)N1CCN(C(=O)CSCc2nc(-c3ccc(OC)c(OC)c3)oc2C)CC1 | 2.37
28 | Cc1ccc(-n2nc(C)c(/C=N/c3ccc(C(=O)N4CCOCC4)cc3)c2O)cc1 | -0.366
29 | Nc1cc(-c2ccccc2)ccc1C(=O)O | 2.6
30 | COc1ccc(-c2cc(CCCC(=O)NCCc3ccc(Cl)cc3)no2)cc1 | -1.3
31 | C=Cc1ccc(Cn2c(C)c(CNCc3cc(OC)c(OC)c(OC)c3)c(C(=O)O)c2C)cc1 | 4.53
32 | COC(=O)C1=C(C)N=c2s/c(=C\c3ccc(Cl)cc3)c(=O)n2C1c1ccccc1Cl (centres unmarked) | 2.78
33 | CCOCCc1nnc(NC(=O)C(=O)c2c[nH]c3ccccc23)s1 | -4.68
34 | CC(C)(C)c1cc(N)n2nc(C(C)(C)C)cc2n1 | -1.69
35 | Cc1ccc(C[C@H](NC(=O)OCc2ccccc2)C(=O)NCC#N)cc1 | -6.46
36 | COCCC/N=C/c1c(C)nn(-c2ccc(Br)c(C)c2)c1O | 1.37
37 | C=CCN1C(=O)N/C(=C/c2ccccc2OCc2ccc(F)cc2)C1=O | 2.6
38 | COc1ccc(CN2CCN(c3cccc(C(F)(F)F)c3)CC2)cc1C | -7.6
39 | CC(C)N(Cc1nc(-c2ccc(Cl)cc2)no1)C(=O)NC1CCCCC1 | 1.67
40 | Cc1oc(CN2CCOCC2)cc1C(=O)O | 5.1
41 | CCOC(=O)N1CCN(C(=O)COc2ccc3c(c2)C(=O)CC2(CCN(C(C)=O)CC2)O3)CC1 | 2.01
42 | Cc1ccc(N2CC(C(=O)Nc3ccccc3C(=O)NC3CCCCC3)CC2=O)cc1C (centres unmarked) | 3.49
43 | Cc1cc(C(=O)O)sc1C | -0.256
44 | CCCOc1ccc(C2C3=C(O)CCCC3=NC(C)=C2C(=O)N2CCOCC2)cc1OC (centres unmarked) | 4.99

Row | Compound | % Inhibition @ 10 uM [%]
45 | Cc1ccc(C(=O)N/C(=C\c2cccs2)C(=O)N2CCCCC2)cc1C | -0.968
46 | COc1cc(/C=C2\Sc3ccccc3C2=O)ccc1OC(C)=O | 0.634
47 | Cc1cc(C)c2c(n1)sc1c(O)nnnc12 | 5.3
48 | C=CCn1c(-c2ccccc2Cl)nc2ccccc21 | 2.73
49 | CCC(Sc1nc(N)cc(O)n1)C(=O)Nc1ccc2ccccc2c1 (centres unmarked) | -2.87
50 | c1ccc(Oc2cccc(CN3CCCCCC3)c2)cc1 | 0.605
51 | CCC(Sc1nc2cccnc2[nH]1)C(=O)NCCOC (centres unmarked) | 0.693
52 | COc1ccc(S(=O)(=O)Nc2ccc(F)c(F)c2)cc1 | 0.162
53 | CCOC(=O)c1sc2ncc([N+](=O)[O-])cc2c1N | 1.9
54 | O=C(O)CC1C(=O)NCCN1Cc1ccc(F)cc1Cl (centres unmarked) | -1.11
55 | CCc1ccc(CNCc2c(C(=O)O)n(Cc3ccc(OC)cc3)c3cc(C)ccc23)cc1 | -5.43
56 | C=CCNC(=O)c1ccccc1NS(=O)(=O)c1ccc(OC)c(OC)c1 | 1.86
57 | COc1ccc(-c2cn3c4c(=O)n(C)c(=O)n(C)c4nc3n2-c2ccc(OC)c(OC)c2)cc1 | -1.11
58 | COCc1cc(C)nc2sc(C(=O)OC)c(N)c12 | 6.23
59 | O=C(NCc1ccccc1)c1cnc2ccc(S(=O)(=O)N3CCC4(CC3)OCCO4)cc2c1O | -3.21
60 | COc1cccc(N(CC(=O)Nc2ccc(C)cc2C)S(C)(=O)=O)c1 | -1.43
61 | CCOc1ccccc1N1CCN(Cc2ccc(-c3ccccc3)cc2)CC1 | -1.77
62 | Cc1nc(N2CCCCCC2)c2ccccc2n1 | -1.12
63 | N#Cc1c(C(F)(F)F)cc(-c2cccs2)nc1S | 88.5
64 | O=C(COc1ccc(Cl)cc1)Nc1ccc(Cl)c(Cl)c1 | 8.26
65 | Cc1cc(OCCCOc2cccc(/C=C3\NC(=O)NC3=O)c2)ccc1Cl | -0.178

From article PMC6919601, “Identification of Plasmodium dipeptidyl aminopeptidase allosteric inhibitors by high throughput screening” (PLoS ONE, 2019)
